T1: RBFOX1 RRM RbFoxmut (Fox-RRM*) (Homo sapiens, UniProt Q9NWB1 109-208, R118D;E147R;N151S;E152T)
T1 sequence: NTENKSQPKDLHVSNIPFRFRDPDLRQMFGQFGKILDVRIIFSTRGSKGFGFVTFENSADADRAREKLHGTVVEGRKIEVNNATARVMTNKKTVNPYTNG

B1: CAUCGCA (DNA:RNA)
RNA: GGGAGACCGGAAUUCAGAUUGUCCCAUCGCAUUAAAUCCCGUCGUAGCCACCA
DNA 1: CAATCTGAATTCCGGTCTCCC
DNA 2: TGGTGGCTACGACGGGATT
B2: GAGGUCU (DNA:RNA)
RNA: B1 RNA with C25G, U27G, C28G, G29U, A31U
DNA 1: CAATCTGAATTCCGGTCTCCC
DNA 2: TGGTGGCTACGACGGGATT
B3: UUUUCCA (DNA:RNA)
RNA: B1 RNA with C25U, A26U, C28U, G29C
DNA 1: CAATCTGAATTCCGGTCTCCC
DNA 2: TGGTGGCTACGACGGGATT
B4: GGCAAUG (DNA:RNA)
RNA: GGGAGACCGGAAUUCAGAUUGUCCGGCAAUGUUAAAUCCCGUCGUAGCCACCA
DNA 1: CAATCTGAATTCCGGTCTCCC
DNA 2: TGGTGGCTACGACGGGATT
B5: UGAUUAA (DNA:RNA)
RNA: B1 RNA with C25U, A26G, U27A, C28U, G29U, C30A
DNA 1: CAATCTGAATTCCGGTCTCCC
DNA 2: TGGTGGCTACGACGGGATT
B6: GCUAAGC (DNA:RNA)
RNA: B4 RNA with G26C, C27U, U30G, G31C
DNA 1: CAATCTGAATTCCGGTCTCCC
DNA 2: TGGTGGCTACGACGGGATT
B7: AUAUGAC (DNA:RNA)
RNA: B1 RNA with C25A, A26U, U27A, C28U, C30A, A31C
DNA 1: CAATCTGAATTCCGGTCTCCC
DNA 2: TGGTGGCTACGACGGGATT
B8: CAUAGGU (DNA:RNA)
RNA: B1 RNA with C28A, C30G, A31U
DNA 1: CAATCTGAATTCCGGTCTCCC
DNA 2: TGGTGGCTACGACGGGATT
B9: AAGCUCU (DNA:RNA)
RNA: B1 RNA with C25A, U27G, G29U, A31U
DNA 1: CAATCTGAATTCCGGTCTCCC
DNA 2: TGGTGGCTACGACGGGATT
B10: CCUCAGG (DNA:RNA)
RNA: B1 RNA with A26C, G29A, C30G, A31G
DNA 1: CAATCTGAATTCCGGTCTCCC
DNA 2: TGGTGGCTACGACGGGATT
B11: CCUAAUU (DNA:RNA)
RNA: B4 RNA with G25C, G26C, C27U, G31U
DNA 1: CAATCTGAATTCCGGTCTCCC
DNA 2: TGGTGGCTACGACGGGATT
B12: UCAUGUA (DNA:RNA)
RNA: B1 RNA with C25U, A26C, U27A, C28U, C30U
DNA 1: CAATCTGAATTCCGGTCTCCC
DNA 2: TGGTGGCTACGACGGGATT
B13: AUAGGUU (DNA:RNA)
RNA: B1 RNA with C25A, A26U, U27A, C28G, C30U, A31U
DNA 1: CAATCTGAATTCCGGTCTCCC
DNA 2: TGGTGGCTACGACGGGATT
B14: CAGCACC (DNA:RNA)
RNA: B1 RNA with U27G, G29A, A31C
DNA 1: CAATCTGAATTCCGGTCTCCC
DNA 2: TGGTGGCTACGACGGGATT
B15: ACUAGAC (DNA:RNA)
RNA: B1 RNA with C25A, A26C, C28A, C30A, A31C
DNA 1: CAATCTGAATTCCGGTCTCCC
DNA 2: TGGTGGCTACGACGGGATT
B16: ACUGCCC (DNA:RNA)
RNA: B1 RNA with C25A, A26C, C28G, G29C, A31C
DNA 1: CAATCTGAATTCCGGTCTCCC
DNA 2: TGGTGGCTACGACGGGATT
B17: UAUUUAC (DNA:RNA)
RNA: B1 RNA with C25U, C28U, G29U, C30A, A31C
DNA 1: CAATCTGAATTCCGGTCTCCC
DNA 2: TGGTGGCTACGACGGGATT
B18: CUAAGUU (DNA:RNA)
RNA: B1 RNA with A26U, U27A, C28A, C30U, A31U
DNA 1: CAATCTGAATTCCGGTCTCCC
DNA 2: TGGTGGCTACGACGGGATT
B19: UCCAUCA (DNA:RNA)
RNA: B1 RNA with C25U, A26C, U27C, C28A, G29U
DNA 1: CAATCTGAATTCCGGTCTCCC
DNA 2: TGGTGGCTACGACGGGATT
B20: CGGAUCA (DNA:RNA)
RNA: B1 RNA with A26G, U27G, C28A, G29U
DNA 1: CAATCTGAATTCCGGTCTCCC
DNA 2: TGGTGGCTACGACGGGATT
B21: AAGGCGA (DNA:RNA)
RNA: B1 RNA with C25A, U27G, C28G, G29C, C30G
DNA 1: CAATCTGAATTCCGGTCTCCC
DNA 2: TGGTGGCTACGACGGGATT
B22: GAACAGC (DNA:RNA)
RNA: B1 RNA with C25G, U27A, G29A, C30G, A31C
DNA 1: CAATCTGAATTCCGGTCTCCC
DNA 2: TGGTGGCTACGACGGGATT
B23: CUAACAU (DNA:RNA)
RNA: B1 RNA with A26U, U27A, C28A, G29C, C30A, A31U
DNA 1: CAATCTGAATTCCGGTCTCCC
DNA 2: TGGTGGCTACGACGGGATT
B24: UUAGAAC (DNA:RNA)
RNA: B4 RNA with G25U, G26U, C27A, A28G, U30A, G31C
DNA 1: CAATCTGAATTCCGGTCTCCC
DNA 2: TGGTGGCTACGACGGGATT
B25: UGGGAGC (DNA:RNA)
RNA: B4 RNA with G25U, C27G, A28G, U30G, G31C
DNA 1: CAATCTGAATTCCGGTCTCCC
DNA 2: TGGTGGCTACGACGGGATT
B26: ACGAGUA (DNA:RNA)
RNA: B1 RNA with C25A, A26C, U27G, C28A, C30U
DNA 1: CAATCTGAATTCCGGTCTCCC
DNA 2: TGGTGGCTACGACGGGATT
B27: GCCAGGG (DNA:RNA)
RNA: B4 RNA with G26C, A29G, U30G
DNA 1: CAATCTGAATTCCGGTCTCCC
DNA 2: TGGTGGCTACGACGGGATT
B28: GGGAUUA (DNA:RNA)
RNA: B4 RNA with C27G, A29U, G31A
DNA 1: CAATCTGAATTCCGGTCTCCC
DNA 2: TGGTGGCTACGACGGGATT
B29: GCCGCUC (DNA:RNA)
RNA: B4 RNA with G26C, A28G, A29C, G31C
DNA 1: CAATCTGAATTCCGGTCTCCC
DNA 2: TGGTGGCTACGACGGGATT
B30: UUCCAUG (DNA:RNA)
RNA: B4 RNA with G25U, G26U, A28C
DNA 1: CAATCTGAATTCCGGTCTCCC
DNA 2: TGGTGGCTACGACGGGATT
B31: AGGACUC (DNA:RNA)
RNA: B4 RNA with G25A, C27G, A29C, G31C
DNA 1: CAATCTGAATTCCGGTCTCCC
DNA 2: TGGTGGCTACGACGGGATT

Residue numbers refer to the chain shown, from its start. The list shows a part of the results.

For the experiment, the target named is T1, RBFOX1 RRM RbFoxmut (Fox-RRM*). The experiment is described as follows: EMSA; HiTS-Eq, 1 nM pool, 10 min; buffer printed only for the single-RNA assays: 10 mM Tris pH 7.5, 150 mM NaCl, 3.4 mM EDTA, 0.001% NP-40, 30 C. The settings on record: tags: His6 N-terminal (pET28a); label: 5' 32P. In short, it runs like this: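 Purified RbFox RRM, wild type or mutant, was incubated for 10 min in 50 µL with 1 nM of a 5′-radiolabelled RNA pool carrying 7 randomized nucleotides, whose flanks were annealed to DNA oligonucleotides, over a series of increasing protein concentrations. Unbound RNA was resolved on 8% native PAGE, cut out, reverse-transcribed, barcoded by PCR and sequenced on an Illumina HiSeq 2500. Relative association constants were derived from changes in read counts for each RNA species versus the control reaction and normalised to the cognate motif.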
For orientation: A gel shift assay detects complexes by their altered migration in electrophoresis.
For B1, the binding signal is 0.164 KA relative to UGCAUGU.

Regarding B2, the binding signal was 0.101 KA relative to UGCAUGU.

Take B3: the binding signal was 0.0593 KA relative to UGCAUGU.

Regarding B4, the binding signal was 0.287 KA relative to UGCAUGU.

Turning to B5, the binding signal is 0.0944 KA relative to UGCAUGU.

With B6, the binding signal was 0.0804 KA relative to UGCAUGU.

B7: the binding signal was 0.131 KA relative to UGCAUGU.

Consider B8, for which the binding signal was 0.13 KA relative to UGCAUGU.

With B9, the binding signal is 0.0709 KA relative to UGCAUGU.

For B10, the binding signal was 0.107 KA relative to UGCAUGU.

Regarding B11, the binding signal was 0.0682 KA relative to UGCAUGU.

Regarding B12, the binding signal is 0.206 KA relative to UGCAUGU.

As to B13, the binding signal was 0.106 KA relative to UGCAUGU.

For the molecule B14, the binding signal was 0.0926 KA relative to UGCAUGU.

Turning to B15, the binding signal is 0.101 KA relative to UGCAUGU.

Regarding B16, the binding signal was 0.0769 KA relative to UGCAUGU.

For B17, the binding signal is 0.113 KA relative to UGCAUGU.

With B18, the binding signal was 0.0884 KA relative to UGCAUGU.

For B19, the binding signal was 0.0673 KA relative to UGCAUGU.

Take B20: the binding signal is 0.121 KA relative to UGCAUGU.

In the case of B21, the binding signal was 0.0874 KA relative to UGCAUGU.

With B22, the binding signal is 0.0737 KA relative to UGCAUGU.

For B23, the binding signal was 0.0924 KA relative to UGCAUGU.

As to B24, the binding signal was 0.0639 KA relative to UGCAUGU.

On to B25, for which the binding signal was 0.104 KA relative to UGCAUGU.

For B26, the binding signal is 0.177 KA relative to UGCAUGU.

For B27, the binding signal is 0.057 KA relative to UGCAUGU.

Regarding B28, the binding signal was 0.139 KA relative to UGCAUGU.

With B29, the binding signal is 0.0471 KA relative to UGCAUGU.

With B30, the binding signal was 0.0921 KA relative to UGCAUGU.

With B31, the binding signal was 0.105 KA relative to UGCAUGU.

The record behind these values is article PMC9911399, “Two distinct binding modes provide the RNA-binding protein RbFox with extraordinary sequence specificity”.
